Reference: a collection of fitness landscapes (doi:10.1126/science.1257360)
The list shows a part of the results.

B1: PhoQ; a variant is named by its letters at X, in order, P23837 (parent)
chain: MKKLLRLFFPLSLRVRFLLATAAVVLVLSLAYGMVALIGYSVSFDKTTFRLLRGESNLFYTLAKWENNKLHVELPENIDKQSPTMTLIYDENGQLLWAQRDVPWLMKMIQPDWLKSNGFHEIEADVNDTSLLLSGDHSIQQQLQEVREDDDDAEMTHSVAVNVYPATSRMPKLTIVVVDTIPVELKSSYMVWSWFIYVLSANLLLVIPLLWVAAWWSLRPIEALAKEVRELEEHNRELLNPATTRELTSLVRNLNRLLKSERERYDKYRTTLTDLTHSLKTPLXXLQXXLRSLRSEKMSVSDAEPVMLEQISRISQQIGYYLHRASMRGGTLLSRELHPVAPLLDNLTSALNKVYQRKGVNISLDISPEISFVGEQNDFVEVMGNVLDNACKYCLEFVEISARQTDEHLYIVVEDDGPGIPLSKREVIFDRGQRVDTLRPGQGVGLAVAREITEQYEGKIVAGESMLGGARMEVIFGRQHSAPKDE

Variants of: B1
Test: enrichment ratio after two sorts for PhoP signalling (ratio (wild type AVST 3.29)); higher = more functional
Settings: with PhoP (E. coli)

| Variant | enrichment ratio |
| --- | --- |
| WPQN | ≤ 0.25 |
| NKPT | ≤ 0.25 |
| AAFC | ≤ 0.25 |
| SRWK | ≤ 0.25 |
| NPPG | ≤ 0.25 |
| SMFW | ≤ 0.25 |
| NCFC | ≤ 0.25 |
| GQFA | ≤ 0.25 |
| TDSF | ≤ 0.25 |
| PIWC | ≤ 0.25 |
| LMCW | ≤ 0.25 |
| SSRP | ≤ 0.25 |
| GNYL | ≤ 0.25 |
| KVTL | ≤ 0.25 |
| QGVF | ≤ 0.25 |
| KEEL | ≤ 0.25 |
| QAKM | ≤ 0.25 |
| HQCD | ≤ 0.25 |
| DFDM | ≤ 0.25 |
| RRIR | ≤ 0.25 |
| PEIK | ≤ 0.25 |
| AMII | ≤ 0.25 |
| QTGI | ≤ 0.25 |
| IAIK | ≤ 0.25 |
| ICQH | ≤ 0.25 |

| Variant | enrichment ratio |
| --- | --- |
| AGYK | ≤ 0.25 |
| PVNW | ≤ 0.25 |
| IRRD | ≤ 0.25 |
| CAFL | ≤ 0.25 |
| MGIV | 10.1 |
| DDAE | ≤ 0.25 |
| HMGC | ≤ 0.25 |
| FQVL | 0.38 |
| PDKF | ≤ 0.25 |
| GSRE | ≤ 0.25 |
| QKYE | ≤ 0.25 |
| NCTP | ≤ 0.25 |
| GYTI | 0.281 |
| PVPL | ≤ 0.25 |
| ENDT | ≤ 0.25 |
| FHSV | ≤ 0.25 |
| EHHE | ≤ 0.25 |
| STAM | 12.1 |
| GFAS | ≤ 0.25 |
| LTMH | 2.1 |
| VLST | ≤ 0.25 |
| ITFH | ≤ 0.25 |
| LELI | 2 |
| QYRA | ≤ 0.25 |
| RVTG | ≤ 0.25 |

| Variant | enrichment ratio |
| --- | --- |
| TDGY | 11.5 |
| KQRN | ≤ 0.25 |
| PDCE | ≤ 0.25 |
| RFDM | ≤ 0.25 |
| PSRW | ≤ 0.25 |
| WKIP | ≤ 0.25 |
| CCTF | ≤ 0.25 |
| HTRE | ≤ 0.25 |
| GLMV | 2.35 |
| QATL | 2.32 |
| AELY | 9.13 |
| GMRR | ≤ 0.25 |
| LMME | ≤ 0.25 |
| VFMF | ≤ 0.25 |
| YGTV | ≤ 0.25 |
| KPRW | ≤ 0.25 |
| MNIF | ≤ 0.25 |
| NPCG | ≤ 0.25 |
| VYYF | ≤ 0.25 |
| NMCV | ≤ 0.25 |
| QKVW | ≤ 0.25 |
| QQTH | ≤ 0.25 |
| QRGQ | ≤ 0.25 |
| AEVL | 17.5 |
| DMIG | ≤ 0.25 |

| Variant | enrichment ratio |
| --- | --- |
| ASPE | ≤ 0.25 |
| IKVE | ≤ 0.25 |
| DHSE | ≤ 0.25 |
| YYEA | ≤ 0.25 |
| GAKV | ≤ 0.25 |
| SEDI | ≤ 0.25 |
| QMFT | ≤ 0.25 |
| DWDR | ≤ 0.25 |
| KACI | ≤ 0.25 |
| SHWS | 0.905 |
| EYGM | ≤ 0.25 |
| EFWM | ≤ 0.25 |
| IYQH | 0.425 |
| GDIT | 14 |
| VDQF | ≤ 0.25 |
| ELHA | ≤ 0.25 |
| WDRF | ≤ 0.25 |
| LWYI | ≤ 0.25 |
| TMDR | ≤ 0.25 |
| EAIA | ≤ 0.25 |
| RTAL | ≤ 0.25 |
| LFQY | ≤ 0.25 |
| DCFM | ≤ 0.25 |
| RCTN | ≤ 0.25 |
| FIAF | ≤ 0.25 |

| Variant | enrichment ratio |
| --- | --- |
| ANTY | 4.81 |
| IMKP | ≤ 0.25 |
| FAAW | ≤ 0.25 |
| FSVF | ≤ 0.25 |
| EPAF | ≤ 0.25 |
| PCEG | 1.45 |
| SMCW | 19.6 |
| NALR | 0.709 |
| WDFI | ≤ 0.25 |
| SENK | ≤ 0.25 |
| ENWK | ≤ 0.25 |
| SEFD | ≤ 0.25 |
| HIMH | ≤ 0.25 |
| YSLY | 2.6 |
| DAYS | ≤ 0.25 |
| NFDD | ≤ 0.25 |
| IGSW | ≤ 0.25 |
| FFKN | ≤ 0.25 |
| DWGY | ≤ 0.25 |
| QEVH | ≤ 0.25 |
| NPAF | ≤ 0.25 |
| NEFQ | ≤ 0.25 |
| WGSW | ≤ 0.25 |
| KHAC | ≤ 0.25 |
| MPCM | ≤ 0.25 |

| Variant | enrichment ratio |
| --- | --- |
| FLHL | ≤ 0.25 |
| RKCY | ≤ 0.25 |
| VRCP | ≤ 0.25 |
| IGSC | ≤ 0.25 |
| AWQR | ≤ 0.25 |
| DKYG | ≤ 0.25 |
| AAEW | ≤ 0.25 |
| EELV | ≤ 0.25 |
| ATQK | ≤ 0.25 |
| FVPA | ≤ 0.25 |
| FHSC | ≤ 0.25 |
| KPSG | ≤ 0.25 |
| QRWY | ≤ 0.25 |
| VGLY | 0.455 |
| VPFQ | ≤ 0.25 |
| HQYV | ≤ 0.25 |
| LKRN | ≤ 0.25 |
| VNAY | ≤ 0.25 |
| LEPA | ≤ 0.25 |
| IELT | 2.32 |
| YNKY | ≤ 0.25 |
| HFHH | ≤ 0.25 |
| MTMC | ≤ 0.25 |
| VRTY | ≤ 0.25 |
| VYCF | ≤ 0.25 |

| Variant | enrichment ratio |
| --- | --- |
| IPFP | ≤ 0.25 |
| DNGN | ≤ 0.25 |
| EPGC | ≤ 0.25 |
| NSIV | ≤ 0.25 |
| QAAT | ≤ 0.25 |
| GQKW | ≤ 0.25 |
| PYPN | ≤ 0.25 |
| QHCI | ≤ 0.25 |
| IRFM | ≤ 0.25 |
| FWIA | ≤ 0.25 |
| RYPR | ≤ 0.25 |
| EFHL | ≤ 0.25 |
| ITRT | ≤ 0.25 |
| NMAQ | ≤ 0.25 |
| IFSQ | ≤ 0.25 |
| TVHW | ≤ 0.25 |
| QIKS | ≤ 0.25 |
| VPNV | ≤ 0.25 |
| HETS | ≤ 0.25 |
| LCIG | ≤ 0.25 |
| KSSS | ≤ 0.25 |
| ACKG | ≤ 0.25 |
| PSDK | ≤ 0.25 |
| MDTY | ≤ 0.25 |
| NSVV | ≤ 0.25 |

| Variant | enrichment ratio |
| --- | --- |
| ALYK | ≤ 0.25 |
| TPWK | ≤ 0.25 |
| KEYI | ≤ 0.25 |
| QDVE | ≤ 0.25 |
| KPKM | ≤ 0.25 |
| YMNW | ≤ 0.25 |
| DHRY | ≤ 0.25 |
| HPMH | ≤ 0.25 |
| NMWG | ≤ 0.25 |
| AYVP | ≤ 0.25 |
| YYFL | 0.339 |
| FSLK | 0.304 |
| ICRH | ≤ 0.25 |
| KSVS | ≤ 0.25 |
| TCHA | ≤ 0.25 |
| QEAI | 5.29 |
| SCTH | 9.21 |
| VTSP | ≤ 0.25 |
| TEYV | 4.31 |
| ASNY | ≤ 0.25 |
